Results as given in the supplement of paper PMC12217912.
Some of the results follow. Sequences were assembled here from the parent chain. Values near 0.05 are background.

B1: TEV protease; numbered along this chain (parent)
chain: MGESLFKGPRDYNPISSSICHLTNESDGHTTSLYGIGFGPFIITNKHLFRRNNGTLVVQSLHGVFKVKDTTTLQQHLVDGRDMIIIRMPKDFPPFPQKLKFREPQREERICLVTTNFQTKSMSSMVSDTSCTFPSGDGIFWKHWIQTKDGQCGSPLVSTRDGFIVGIHSASNFTNTNNYFTSVPKNFMELLTNQEAQQWVSGWRLNADSVLWGGHKVFMVKPEEPFQPVKEATQL

Variants of: B1
Assay: raw area under fraction-flipped curve 0-4 h after induction (AUC4h, not background-subtracted), DNA-recorder readout of cleavage of the substrate (dimensionless); higher = more cleavage of the substrate by the protease variant
Conditions: temperature: 34 °C; time window: 0-4 h after rhamnose induction
Description: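 In vivo DNA recorder in E. coli TOP10(DE3) ΔrhaA at 34 °C. Each TEVp single-site mutant (parent TEVp 0) is paired with a single-site variant of the 7-mer TEVs (canonical ENLYFQ|S). The substrate sits between flexible linkers in a Bxb1-sfGFP-TEVs-SsrA fusion, so cleavage stabilises Bxb1 and speeds flipping of a recombination array, read by NGS. The value is the raw area under the fraction-flipped curve over 0-4 h after rhamnose induction (AUC4h), with ≥20 reads per time point. It is not background-subtracted; inactive controls average about 0.047.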
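Note: Bxb1 expression induced with 0.2% (w/v) L-rhamnose at OD600 near 0.5, cultures sampled hourly, flipped fraction per protease–substrate barcode pair counted by paired-end Illumina sequencing.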

Variant	area with substrate ENLYFAS	area with substrate ENLYFCS	area with substrate ENLYFDS	area with substrate ENLYFES	area with substrate ENLYFFS	area with substrate ENLYFHS	area with substrate ENLYFIS	area with substrate ENLYFKS	area with substrate ENLYFMS	area with substrate ENLYFNS	area with substrate ENLYFPS	area with substrate ENLYFRS	area with substrate ENLYFSS	area with substrate ENLYFTS	area with substrate ENLYFVS	area with substrate ENLYFWS	area with substrate ENLYFYS	area with substrate ENLYFGS	area with substrate ENLYFLS
MGESLFKGPRDYNPISSSICHLTNESDGHTTSLYGIGFGPFIITNKHLFRRNNGTLVVQSLHGVFKVKDTTTLQQHLVDGRDMIIIRMPKDFPPFPQKLKFREPWREERICLVTTNFQTKSMSSMVSDTSCTFPSGDGIFWKHWIQTKDGQCGSPLVSTRDGFIVGIHSASNFTNTNNYFTSVPKNFMELLTNQEAQQWVSGWRLNADSVLWGGHKVFMVKPEEPFQPVKEATQL [Q105W]	0.0566	0.0481	0.0605	0.0627	0.0777	0.0657	0.0622	0.0569	0.0627	0.0685	0.0585	0.0549	0.0427	0.0646	0.0791	0.0517	0.0673		
MGESLFKGPRDYNPISSSICHLTNESDGHTTSLYGIGFGPFIITNKHLFRRNNGTLVVQSLHGVFKVKDTTTLQQHLVDGRDMIIIRMPKDFPPFPQKLKFREPQREERICCVTTNFQTKSMSSMVSDTSCTFPSGDGIFWKHWIQTKDGQCGSPLVSTRDGFIVGIHSASNFTNTNNYFTSVPKNFMELLTNQEAQQWVSGWRLNADSVLWGGHKVFMVKPEEPFQPVKEATQL [L112C]	0.06	0.0578	0.0655	0.0654	0.0652		0.0588	0.0619	0.0673	0.0524	0.0476	0.0564		0.062		0.0518	0.0465		
MGESLFKGPRDYNPISSSICHLTNESDGHTTSLYGIGFGPFIITNKHLFRRNNGTLVVQSLHGVFKVKDTTTLQQHLVDGRDMIIIRMPKDFPPFPQKLKFREPQREERICFVTTNFQTKSMSSMVSDTSCTFPSGDGIFWKHWIQTKDGQCGSPLVSTRDGFIVGIHSASNFTNTNNYFTSVPKNFMELLTNQEAQQWVSGWRLNADSVLWGGHKVFMVKPEEPFQPVKEATQL [L112F]	0.0518	0.0626		0.0611	0.0681				0.077	0.0496	0.0606		0.0552	0.0399	0.0598	0.0629			
MGESLFKGPRDYNPISSSICHLTNESDGHTTSLYGIGFGPFIITNKHLFRRNNGTLVVQSLHGVFKVKDTTTLQQHLVDGRDMIIIRMPKDFPPFPQKLKFREPQREERICHVTTNFQTKSMSSMVSDTSCTFPSGDGIFWKHWIQTKDGQCGSPLVSTRDGFIVGIHSASNFTNTNNYFTSVPKNFMELLTNQEAQQWVSGWRLNADSVLWGGHKVFMVKPEEPFQPVKEATQL [L112H]	0.0546		0.0642	0.0664	0.0729	0.0812	0.0572		0.0601	0.0694	0.0622	0.0662	0.0642	0.0596	0.03				
MGESLFKGPRDYNPISSSICHLTNESDGHTTSLYGIGFGPFIITNKHLFRRNNGTLVVQSLHGVFKVKDTTTLQQHLVDGRDMIIIRMPKDFPPFPQKLKFREPQREERICIVTTNFQTKSMSSMVSDTSCTFPSGDGIFWKHWIQTKDGQCGSPLVSTRDGFIVGIHSASNFTNTNNYFTSVPKNFMELLTNQEAQQWVSGWRLNADSVLWGGHKVFMVKPEEPFQPVKEATQL [L112I]	0.0842	0.0587	0.0585	0.0626	0.0686		0.0501	0.0543	0.0385			0.066		0.0599	0.0831			0.0589	
MGESLFKGPRDYNPISSSICHLTNESDGHTTSLYGIGFGPFIITNKHLFRRNNGTLVVQSLHGVFKVKDTTTLQQHLVDGRDMIIIRMPKDFPPFPQKLKFREPQREERICNVTTNFQTKSMSSMVSDTSCTFPSGDGIFWKHWIQTKDGQCGSPLVSTRDGFIVGIHSASNFTNTNNYFTSVPKNFMELLTNQEAQQWVSGWRLNADSVLWGGHKVFMVKPEEPFQPVKEATQL [L112N]	0.0604	0.0559		0.0619	0.0647	0.0706	0.0473	0.042	0.0586	0.0582	0.0615	0.0527		0.0574	0.048	0.0514	0.053	0.0533	0.0425
MGESLFKGPRDYNPISSSICHLTNESDGHTTSLYGIGFGPFIITNKHLFRRNNGTLVVQSLHGVFKVKDTTTLQQHLVDGRDMIIIRMPKDFPPFPQKLKFREPQREERICQVTTNFQTKSMSSMVSDTSCTFPSGDGIFWKHWIQTKDGQCGSPLVSTRDGFIVGIHSASNFTNTNNYFTSVPKNFMELLTNQEAQQWVSGWRLNADSVLWGGHKVFMVKPEEPFQPVKEATQL [L112Q]	0.0374	0.0666	0.0615	0.0702			0.0497	0.0586	0.0584	0.0434	0.063	0.0736	0.0405	0.0478	0.0627		0.072		0.0613
MGESLFKGPRDYNPISSSICHLTNESDGHTTSLYGIGFGPFIITNKHLFRRNNGTLVVQSLHGVFKVKDTTTLQQHLVDGRDMIIIRMPKDFPPFPQKLKFREPQREERICLVTTNNQTKSMSSMVSDTSCTFPSGDGIFWKHWIQTKDGQCGSPLVSTRDGFIVGIHSASNFTNTNNYFTSVPKNFMELLTNQEAQQWVSGWRLNADSVLWGGHKVFMVKPEEPFQPVKEATQL [F117N]	0.0679		0.0467	0.101	0.066	0.058	0.0711	0.0651	0.072	0.0645		0.0419		0.0542	0.0532	0.0234	0.006		
MGESLFKGPRDYNPISSSICHLTNESDGHTTSLYGIGFGPFIITNKHLFRRNNGTLVVQSLHGVFKVKDTTTLQQHLVDGRDMIIIRMPKDFPPFPQKLKFREPQREERICLVTTNFQTGSMSSMVSDTSCTFPSGDGIFWKHWIQTKDGQCGSPLVSTRDGFIVGIHSASNFTNTNNYFTSVPKNFMELLTNQEAQQWVSGWRLNADSVLWGGHKVFMVKPEEPFQPVKEATQL [K120G]	0.0468			0.0649	0.0796		0.0632		0.0507	0.0765	0.0535		0.0373	0.0646					
